T1: RBFOX1 RRM RbFoxmut (Fox-RRM*) (Homo sapiens, UniProt Q9NWB1 109-208, R118D;E147R;N151S;E152T)
T1 sequence: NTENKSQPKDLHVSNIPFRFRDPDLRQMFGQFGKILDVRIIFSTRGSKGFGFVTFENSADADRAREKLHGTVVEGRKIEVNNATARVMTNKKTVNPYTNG

B1: UACUGUA (DNA:RNA)
RNA: GGGAGACCGGAAUUCAGAUUGUCCUACUGUAUUAAAUCCCGUCGUAGCCACCA
DNA 1: CAATCTGAATTCCGGTCTCCC
DNA 2: TGGTGGCTACGACGGGATT
B2: UUAAUUC (DNA:RNA)
RNA: B1 RNA with A26U, C27A, U28A, G29U, A31C
DNA 1: CAATCTGAATTCCGGTCTCCC
DNA 2: TGGTGGCTACGACGGGATT
B3: AUCCAUG (DNA:RNA)
RNA: B1 RNA with U25A, A26U, U28C, G29A, A31G
DNA 1: CAATCTGAATTCCGGTCTCCC
DNA 2: TGGTGGCTACGACGGGATT
B4: GACAUGC (DNA:RNA)
RNA: B1 RNA with U25G, U28A, G29U, U30G, A31C
DNA 1: CAATCTGAATTCCGGTCTCCC
DNA 2: TGGTGGCTACGACGGGATT
B5: CCCCGCA (DNA:RNA)
RNA: B1 RNA with U25C, A26C, U28C, U30C
DNA 1: CAATCTGAATTCCGGTCTCCC
DNA 2: TGGTGGCTACGACGGGATT
B6: GGGUGGU (DNA:RNA)
RNA: B1 RNA with U25G, A26G, C27G, U30G, A31U
DNA 1: CAATCTGAATTCCGGTCTCCC
DNA 2: TGGTGGCTACGACGGGATT
B7: AUACGAG (DNA:RNA)
RNA: B1 RNA with U25A, A26U, C27A, U28C, U30A, A31G
DNA 1: CAATCTGAATTCCGGTCTCCC
DNA 2: TGGTGGCTACGACGGGATT
B8: AAGUUGG (DNA:RNA)
RNA: B1 RNA with U25A, C27G, G29U, U30G, A31G
DNA 1: CAATCTGAATTCCGGTCTCCC
DNA 2: TGGTGGCTACGACGGGATT
B9: UCUAAAG (DNA:RNA)
RNA: B1 RNA with A26C, C27U, U28A, G29A, U30A, A31G
DNA 1: CAATCTGAATTCCGGTCTCCC
DNA 2: TGGTGGCTACGACGGGATT
B10: GAUCGGC (DNA:RNA)
RNA: B1 RNA with U25G, C27U, U28C, U30G, A31C
DNA 1: CAATCTGAATTCCGGTCTCCC
DNA 2: TGGTGGCTACGACGGGATT
B11: GUAGUGC (DNA:RNA)
RNA: GGGAGACCGGAAUUCAGAUUGUCCGUAGUGCUUAAAUCCCGUCGUAGCCACCA
DNA 1: CAATCTGAATTCCGGTCTCCC
DNA 2: TGGTGGCTACGACGGGATT
B12: GUCUUGC (DNA:RNA)
RNA: B11 RNA with A27C, G28U
DNA 1: CAATCTGAATTCCGGTCTCCC
DNA 2: TGGTGGCTACGACGGGATT
B13: CUAAACC (DNA:RNA)
RNA: B11 RNA with G25C, G28A, U29A, G30C
DNA 1: CAATCTGAATTCCGGTCTCCC
DNA 2: TGGTGGCTACGACGGGATT
B14: UCGGUUA (DNA:RNA)
RNA: B1 RNA with A26C, C27G, U28G, G29U
DNA 1: CAATCTGAATTCCGGTCTCCC
DNA 2: TGGTGGCTACGACGGGATT
B15: CUAUACU (DNA:RNA)
RNA: B11 RNA with G25C, G28U, U29A, G30C, C31U
DNA 1: CAATCTGAATTCCGGTCTCCC
DNA 2: TGGTGGCTACGACGGGATT
B16: GCCUUUA (DNA:RNA)
RNA: B1 RNA with U25G, A26C, G29U
DNA 1: CAATCTGAATTCCGGTCTCCC
DNA 2: TGGTGGCTACGACGGGATT
B17: CUGACUA (DNA:RNA)
RNA: B1 RNA with U25C, A26U, C27G, U28A, G29C
DNA 1: CAATCTGAATTCCGGTCTCCC
DNA 2: TGGTGGCTACGACGGGATT
B18: UUAAAGG (DNA:RNA)
RNA: B11 RNA with G25U, G28A, U29A, C31G
DNA 1: CAATCTGAATTCCGGTCTCCC
DNA 2: TGGTGGCTACGACGGGATT
B19: GAUAUCU (DNA:RNA)
RNA: B11 RNA with U26A, A27U, G28A, G30C, C31U
DNA 1: CAATCTGAATTCCGGTCTCCC
DNA 2: TGGTGGCTACGACGGGATT
B20: CCCUGUC (DNA:RNA)
RNA: B1 RNA with U25C, A26C, A31C
DNA 1: CAATCTGAATTCCGGTCTCCC
DNA 2: TGGTGGCTACGACGGGATT
B21: CGAGGUU (DNA:RNA)
RNA: B11 RNA with G25C, U26G, U29G, G30U, C31U
DNA 1: CAATCTGAATTCCGGTCTCCC
DNA 2: TGGTGGCTACGACGGGATT
B22: UGACACG (DNA:RNA)
RNA: B11 RNA with G25U, U26G, G28C, U29A, G30C, C31G
DNA 1: CAATCTGAATTCCGGTCTCCC
DNA 2: TGGTGGCTACGACGGGATT
B23: AACCAAU (DNA:RNA)
RNA: B1 RNA with U25A, U28C, G29A, U30A, A31U
DNA 1: CAATCTGAATTCCGGTCTCCC
DNA 2: TGGTGGCTACGACGGGATT
B24: UCACACC (DNA:RNA)
RNA: B11 RNA with G25U, U26C, G28C, U29A, G30C
DNA 1: CAATCTGAATTCCGGTCTCCC
DNA 2: TGGTGGCTACGACGGGATT
B25: GGUGAAG (DNA:RNA)
RNA: B11 RNA with U26G, A27U, U29A, G30A, C31G
DNA 1: CAATCTGAATTCCGGTCTCCC
DNA 2: TGGTGGCTACGACGGGATT
B26: UGUGGAG (DNA:RNA)
RNA: B1 RNA with A26G, C27U, U28G, U30A, A31G
DNA 1: CAATCTGAATTCCGGTCTCCC
DNA 2: TGGTGGCTACGACGGGATT
B27: GAUCUGC (DNA:RNA)
RNA: B11 RNA with U26A, A27U, G28C
DNA 1: CAATCTGAATTCCGGTCTCCC
DNA 2: TGGTGGCTACGACGGGATT
B28: CGCCACA (DNA:RNA)
RNA: B1 RNA with U25C, A26G, U28C, G29A, U30C
DNA 1: CAATCTGAATTCCGGTCTCCC
DNA 2: TGGTGGCTACGACGGGATT
B29: GUGUUUG (DNA:RNA)
RNA: B11 RNA with A27G, G28U, G30U, C31G
DNA 1: CAATCTGAATTCCGGTCTCCC
DNA 2: TGGTGGCTACGACGGGATT
B30: UCUGCGC (DNA:RNA)
RNA: B11 RNA with G25U, U26C, A27U, U29C
DNA 1: CAATCTGAATTCCGGTCTCCC
DNA 2: TGGTGGCTACGACGGGATT
B31: UAGUAUC (DNA:RNA)
RNA: B1 RNA with C27G, G29A, A31C
DNA 1: CAATCTGAATTCCGGTCTCCC
DNA 2: TGGTGGCTACGACGGGATT

Where a chain is given by its changes, count along the chain named. The list shows a part of the results.

The experiment deals with T1, RBFOX1 RRM RbFoxmut (Fox-RRM*). Nature of the experiment: EMSA; HiTS-Eq, 1 nM pool, 10 min; buffer printed only for the single-RNA assays: 10 mM Tris pH 7.5, 150 mM NaCl, 3.4 mM EDTA, 0.001% NP-40, 30 C. The settings on record: tags: His6 N-terminal (pET28a); label: 5' 32P. Put shortly: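 These values rest on relative association constants, computed from read-count changes of each RNA species versus the control reaction and normalised to the cognate motif. Reads came from free RNA recovered by 8% native PAGE after purified RbFox RRM (wild type or mutant) at increasing concentrations was equilibrated for 10 min in 50 µL with 1 nM of a 5′-radiolabelled pool with 7 randomized nucleotides and DNA-annealed flanks.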
(In general: Mobility shift assays separate free from complexed probe on a gel.)
For B1, the binding signal was 0.173 KA relative to UGCAUGU.

Turning to B2, the binding signal was 0.0842 KA relative to UGCAUGU.

As to B3, the binding signal is 0.1 KA relative to UGCAUGU.

With B4, the binding signal is 0.0819 KA relative to UGCAUGU.

In the case of B5, the binding signal is 0.118 KA relative to UGCAUGU.

With B6, the binding signal is 0.133 KA relative to UGCAUGU.

Consider B7, for which the binding signal is 0.139 KA relative to UGCAUGU.

Turning to B8, the binding signal was 0.0994 KA relative to UGCAUGU.

Regarding B9, the binding signal is 0.122 KA relative to UGCAUGU.

B10: the binding signal was 0.108 KA relative to UGCAUGU.

Regarding B11, the binding signal was 0.174 KA relative to UGCAUGU.

As to B12, the binding signal is 0.502 KA relative to UGCAUGU.

Turning to B13, the binding signal was 0.0479 KA relative to UGCAUGU.

On to B14, for which the binding signal was 0.115 KA relative to UGCAUGU.

With B15, the binding signal was 0.11 KA relative to UGCAUGU.

As for B16, the binding signal was 0.0986 KA relative to UGCAUGU.

Regarding B17, the binding signal is 0.0905 KA relative to UGCAUGU.

As for B18, the binding signal was 0.0815 KA relative to UGCAUGU.

As for B19, the binding signal is 0.0914 KA relative to UGCAUGU.

Take B20: the binding signal is 0.194 KA relative to UGCAUGU.

Regarding B21, the binding signal is 0.0909 KA relative to UGCAUGU.

As for B22, the binding signal is 0.121 KA relative to UGCAUGU.

Turning to B23, the binding signal is 0.0598 KA relative to UGCAUGU.

As to B24, the binding signal is 0.0564 KA relative to UGCAUGU.

As for B25, the binding signal was 0.0796 KA relative to UGCAUGU.

For B26, the binding signal is 0.15 KA relative to UGCAUGU.

Consider B27, for which the binding signal is 0.0664 KA relative to UGCAUGU.

As to B28, the binding signal is 0.103 KA relative to UGCAUGU.

With B29, the binding signal is 0.68 KA relative to UGCAUGU.

As to B30, the binding signal was 0.12 KA relative to UGCAUGU.

With B31, the binding signal was 0.183 KA relative to UGCAUGU.

These data come from article PMC9911399, “Two distinct binding modes provide the RNA-binding protein RbFox with extraordinary sequence specificity”.
